Laboratory results published in PubChem BioAssay AID1768 (National Center for Advancing Translational Sciences (NCATS), 2009).
Values joined by “and” are separate entries in the source; they are usually repeats but may differ in a detail not shown here. Identical values can stand only once. Out of some 270,000 compounds screened, about 620 (0.23%) were called active. The inconclusive results got no clear call from the source; some entries with a clear call stand among them for comparison. Calls come from the whole dose curve; as a rule, active = well fitted inhibition curve with a large enough effect in the polarisation, with a control signal flat (not every such curve was filed as active); inconclusive = small, poorly fitted or top-dose-only effect, or effect the other way, or a change in a side signal; inactive = no such curve, though single readings can be large or run the other way; the % refers to the polarisation. Where the call is inconclusive, the potency comes from a doubtful curve fit. A note “side channel” means that the fit belongs to a control or component signal, not to the main read-out.

Biological target: Menin (Homo sapiens) (UniProt O00255)
Experiment: qHTS Assay for Inhibitors Targeting the Menin-MLL Interaction in MLL Related Leukemias: Competition With Texas Red Labeled MLL-derived Mutant Peptide
Conditions: fluorescence polarization; series mostly up to 61.6 µM
Potency is the fitted concentration of half-maximal effect; tags give direction and shape of the fitted curve or compound fluorescence and quenching.

UniProt O00255, sequence (O00255 whole entry, looked up): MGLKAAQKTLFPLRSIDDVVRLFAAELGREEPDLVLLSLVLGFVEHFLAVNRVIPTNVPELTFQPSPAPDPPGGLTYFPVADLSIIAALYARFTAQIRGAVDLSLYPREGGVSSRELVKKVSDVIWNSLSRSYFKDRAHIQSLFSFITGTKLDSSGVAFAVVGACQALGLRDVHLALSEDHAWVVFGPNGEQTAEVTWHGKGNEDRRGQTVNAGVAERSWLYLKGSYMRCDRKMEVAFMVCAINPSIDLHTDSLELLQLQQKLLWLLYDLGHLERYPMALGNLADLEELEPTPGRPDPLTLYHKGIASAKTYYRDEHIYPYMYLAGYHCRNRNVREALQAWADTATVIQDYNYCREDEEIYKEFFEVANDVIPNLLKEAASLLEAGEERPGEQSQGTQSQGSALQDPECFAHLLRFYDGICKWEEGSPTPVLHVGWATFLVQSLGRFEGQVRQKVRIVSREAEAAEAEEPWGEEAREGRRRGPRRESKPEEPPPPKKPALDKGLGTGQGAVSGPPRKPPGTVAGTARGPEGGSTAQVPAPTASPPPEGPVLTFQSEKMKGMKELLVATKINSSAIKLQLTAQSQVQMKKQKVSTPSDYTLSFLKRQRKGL

Potency, inactive:
O=S(=O)(c1ccc(N=C2NN=C(c3cc(F)ccc3F)CS2)cc1)N1CCOCC1
CCCn1nc(NC(=O)c2ccco2)c2cc3ccc(C)cc3nc21
CCOC(=O)CC1C(=O)NCCN1C(=O)c1cc2c(=O)n3cccc(C)c3nc2s1 (stereo unspecified)
CC(C)c1c(O)ccc2c1CCC1C(C)(C)CCC[C@@]21C (stereo partly specified)
Cc1cccc(OCC(=O)Nc2ccc3oc(=O)ccc3c2)c1
O=C(CSc1nnc(-c2cccnc2)s1)Nc1cccc(C(=O)O)c1
CN1C(=O)C(=O)/C(=C(/O)c2ccc(Br)cc2)C1c1ccc(Cl)cc1 (stereo unspecified)
COc1cc(/C=N/Nc2nc(Nc3ccc(C)cc3)nc(-n3nc(C)cc3C)n2)cc(OC)c1OC

Potency, inconclusive:
C=CCc1cccc2cc(C(=O)Nc3ccc(CC(=O)O)cc3)c(=O)oc12 35.5 µM [quencher, side channel, partial curve]
CCCc1c(OCCCCc2nn[nH]n2)ccc(C(C)=O)c1O 20 µM [quencher, side channel, partial curve] and 8.91 µM [quencher, side channel, partial curve] and 14.1 µM [quencher, side channel, single point]
COc1ccc(C2CC(c3cccs3)=Nc3ccccc3S2)cc1 (stereo unspecified) 3.55 µM [quencher, side channel, single point]
O=C(c1cccc(F)c1)N(Cc1nc2ccccc2c(=O)[nH]1)C1CCCC1 8.91 µM [fluorescent, side channel, full curve, poor fit]
Nc1cc(-c2ccccc2)nn1Cc1ccc(Cl)cc1 15.8 µM [quencher, side channel, partial curve]
O=c1cc(-c2ccc(O)cc2)oc2c(-c3cc(-c4cc(=O)c5c(O)cc(O)cc5o4)ccc3O)c(O)ccc12 22.4 µM [quencher, partial curve]
CCC(C)N(CCNC(=O)c1ccc2c(c1)NC(=O)c1ccccc1S2)C1CCCCC1 (stereo unspecified) 11.2 µM [inhibitor, partial curve]
CCOC(=O)C1CCCN(c2ccc(NC(=O)c3snc4c(=O)[nH]cnc34)cc2)C1 (stereo unspecified) 11.2 µM [quencher, side channel, partial curve]
O=C(Nc1ccc(Br)cn1)c1ccc([N+](=O)[O-])o1 8.91 µM [quencher, side channel, full curve, poor fit]
Cc1cccc(OCc2nnc(SCC(=O)NCCc3ccccc3)o2)c1 31.6 µM [fluorescent, side channel, single point]
COc1ccc(NC(=O)CSc2sc3c(O)cc(=O)[nH]c3c2C#N)c(OC)c1 25.1 µM [quencher, side channel, single point]
COc1ccc(-c2cc(C(F)F)nc(-n3nc(C)cc3C)n2)cc1 10 µM [fluorescent, side channel, partial curve]
CCn1cc(C(=O)NC2CC3CCC2C3)c(=O)c2ccc(C)nc21 (stereo unspecified) 3.55 µM [fluorescent, side channel, single point]
Cc1ccc(Cn2cc(/C=N/Nc3ccc([N+](=O)[O-])cn3)c3ccccc32)cc1 2.82 µM [quencher, side channel, full curve]
COc1ccc(C(=O)Nc2nc3ccccc3s2)cc1 25.1 µM [quencher, side channel, single point]
COc1ccc(-c2nc(-c3cccs3)c(-c3cccs3)[nH]2)cc1OC 20 µM [quencher, side channel, partial curve]
O=C(Cc1cccs1)N/N=C/C=C/c1ccco1 28.2 µM [quencher, side channel, single point]
N#CCSc1nc(N)c(C#N)c(C2CCCCC2)c1C#N 14.1 µM [quencher, side channel, partial curve]
COc1ccc(-c2cc(C(=O)Nc3cccc(Cl)c3)no2)cc1 0.316 µM [inhibitor, full curve, poor fit]
COc1ccc(N2CCN(C(=O)c3ccc4c(c3)[nH]c(=S)n3c5ccccc5nc43)CC2)cc1 39.8 µM [quencher, side channel, single point]
COc1cc(C(=O)NC(C)c2ccc3ccccc3c2)cc(Cl)c1O (stereo unspecified) 31.6 µM [quencher, side channel, single point]
CCCCCOc1ccc(C(C)(O)C(CN2CCOCC2)c2ccccc2)cc1 (stereo unspecified) 3.98 µM [fluorescent, side channel, full curve]
NC(=O)c1c(NC(=O)c2ccccc2)sc2c1CCC2 14.1 µM [quencher, side channel, partial curve]
Cc1ccc(S(=O)(=O)N2CCN(S(=O)(=O)N3CCCCCC3)CC2)cc1 15.8 µM [fluorescent, side channel, partial curve]
CC(C)COC(=O)c1cccc2c1-c1ccccc1/C2=N\O 12.6 µM [quencher, side channel, partial curve]
CCC(C)Nc1c2c(nc3c(-c4ccccc4)c(C)nn13)CCC2 (stereo unspecified) 2.24 µM [inhibitor, full curve, poor fit]
O=C(c1cnccn1)N1CCC2(CCN(Cc3cc(C(F)(F)F)cc(C(F)(F)F)c3)CC2)CC1 25.1 µM [inhibitor, partial curve]
O=[n+]1c2c(n([O-])c3ccccc31)CCCC2 8.91 µM [fluorescent, side channel, full curve]
O=C(Nc1ccc(Br)cc1)c1cccc(S(=O)(=O)Nc2cnc3ccccc3c2)c1 20 µM [quencher, side channel, single point]
O=C(O)c1ccc(Cl)c(S(=O)(=O)N(Cc2ccccc2)c2ccc(Cl)cc2)c1 25.1 µM [quencher, side channel, partial curve]
Cc1cc(N2CCN(S(=O)(=O)c3ccc(Br)cc3)CC2)n2ncnc2n1 10 µM [fluorescent, side channel, partial curve]
CC1CCN(S(=O)(=O)c2ccc3c(c2)N(CC(=O)NCCCN(Cc2ccccc2)C(C)C)C(=O)CO3)CC1 39.8 µM [inhibitor, single point]
CCCCCCOC(=O)C(C#N)c1nc2ccccc2nc1N1CCN(C)CC1 (stereo unspecified) 3.55 µM [inhibitor, single point]
CCc1ccc(N2C(=O)C(Cl)=C(N3CCCCCC3)C2=O)cc1 22.4 µM [fluorescent, side channel, single point]
COc1cc(C(c2c(C(=O)O)[nH]c3ccccc23)c2c(C(=O)O)[nH]c3ccccc23)ccc1OCc1ccccc1 14.1 µM [quencher, side channel, partial curve]
N=c1c[n+](-c2ccc(Cl)cc2)[n-]o1 22.4 µM [quencher, side channel, single point]
COc1ccc2nc(C)cc(Sc3nc4ccccc4s3)c2c1 25.1 µM [fluorescent, side channel, single point]
COc1ccccc1NC(=O)c1c(O)c2ccccc2[nH]c1=O 39.8 µM [inhibitor, single point]
CCOc1ccc(CCNC(=O)CS(=O)(=O)Cc2nc(-c3cccc(OC)c3)oc2C)cc1 22.4 µM [fluorescent, side channel, partial curve]
Nc1cc(-c2ccc(Br)cc2)nc2cc(-c3ccccc3)nn12 14.1 µM [quencher, side channel, partial curve]
Oc1ccc(/C=N/N(Cc2ccccc2)c2ccccc2)c(O)c1O 22.4 µM [quencher, side channel, partial curve]
CC1=NN(C(N)=S)C(=O)C1N=Nc1ccccc1C (stereo unspecified) 35.5 µM [quencher, side channel, single point]
COc1cccc(C(=O)N(Cc2cc3cc(C)ccc3[nH]c2=O)CC2CCCO2)c1 (stereo unspecified) 8.91 µM [inhibitor, single point]
N#Cc1c(OCC(=O)c2ccccc2)nc2c(c1-c1ccco1)CCc1ccccc1-2 15.8 µM [quencher, side channel, single point]
COc1ccc(C(=O)Oc2cccnc2)cc1OC 17.8 µM [inhibitor, partial curve]
O=C(c1ccccc1Br)N1CCN(c2ccccn2)CC1 2 µM [inhibitor, full curve]
CC1=NN(c2ccc(F)cc2)C(=O)C1C(c1cccc(O)c1)c1c(C)[nH]n(-c2ccc(F)cc2)c1=O (stereo unspecified) 31.6 µM [quencher, side channel, partial curve]
COc1ccc(/C=N/NC(=O)c2ccccc2O)cc1Cn1cc(Cl)cn1 7.94 µM [quencher, side channel, partial curve]
